Laboratory results as given in PubChem BioAssay AID1745845 (National Center for Advancing Translational Sciences (NCATS), 2022).
Several values for one entry are separate records, joined by “and”; a condition that tells them apart may be missing. Equal values may be shown once. Hit rate of the full screen: of about 360,000 compounds, about 2,600 (0.72%) were called active. This list was built around the results that the source calls inconclusive (neither active nor inactive); the mix of calls is not that of the screen. Calls follow the shape of the dose curve; as a rule, active = well fitted inhibition curve with a large enough effect; inconclusive = small, poorly fitted or top-dose-only effect; inactive = no such curve, though single readings can be large or run the other way. A potency beside an inconclusive call is a rough fit, not a confirmed value.

experiment: Primary qHTS for Inhibitors of ATXN expression; settings: HEK-293 ATXN2-luciferase reporter, luminescence, 24 h; activity change, negative = inhibition: at 57 µM (top of the series); also: nearly all actives have a fitted effect of over 55% in size
Outline: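 qHTS (up to 57 uM final) was run with 24 h compound exposure of reporter cells at 37 °C. Each well was multiplexed: SteadyGlo luminescence measured ATXN2-luciferase expression after a fluorogenic Gly-Phe-AFC viability readout (25 uM final).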
% is scaled to controls: 0 for no effect and ±100 for the full control effect; potency is read from the fitted curve at half-maximal effect; tags tell the direction and shape of the fitted curve.

| SMILES | activity change, negative = inhibition | Potency |
| --- | --- | --- |
| Cc1cc(C=C2C(=O)c3ccccc3C2=O)c(C)n1-c1ccc(Cl)cc1 | inactive: 60% | – |
| C=CC[C@H](CC(=O)N(CCO)Cc1ccccc1)C(=O)N[C@H](COC(=O)[C@@H](CC=C)CC(=O)OC(C)(C)C)Cc1ccccc1 | – | inconclusive: 35.5 µM [inhibitor, single point] |
| Cc1cc(O)c2ccccc2c1O | – | active: 8.91 µM |
| CCSC1=C(C#N)C2(CCCC2)C(C#N)=C(N)N1 | inactive: 11.1% | – |
| O=C(Nc1cccc([N+](=O)[O-])c1)N1CCN(c2ccccc2)CC1 | – | inconclusive: 2.24 µM [inhibitor, full curve] |
| O=C(CCCn1cnc([N+](=O)[O-])n1)Nc1ccc(Cl)c(Cl)c1 | – | inconclusive: 31.6 µM [inhibitor, partial curve, poor fit] |
| Cc1ccc(C)c(N2CCN(CC3CC=CCC3)CC2)c1 (centres undefined) | – | inconclusive: 25.1 µM [inhibitor, partial curve, poor fit] |
| O=C(CCc1c[nH]c2ccccc12)N1CCN(c2ccc(O)cc2)CC1 | – | inconclusive: 8.91 µM [inhibitor, partial curve, poor fit] |
| COc1ccccc1N1CCN(C(=O)c2cc3c(s2)-c2ccccc2OC3)CC1 | – | inconclusive: 39.8 µM [inhibitor, single point] |
| COc1ccc(OC)c(C(=O)c2ccc(C(=O)Nc3ccc(NC(C)=O)cc3)cc2)c1 | – | inconclusive: 25.1 µM [inhibitor, partial curve, poor fit] |
| Clc1ccccc1CN(Cc1ccccc1)C(c1cccs1)c1nnnn1C1CCCC1 (centres undefined) | inactive: -22.6% | – |
| Cc1cc(Br)ccc1NC(=O)CN1C(=O)C2C3CC(c4ccccc4)C(C3)C2C1=O (centres undefined) | – | inconclusive: 39.8 µM [inhibitor, partial curve, poor fit] |
| O=c1[nH]c2ccccc2n2c(-c3ccccc3)nnc12 | – | inconclusive: 20 µM [inhibitor, partial curve] |
| CC(=O)NCc1ccc(C(=O)CCl)s1 | – | inconclusive: 37.7 µM [inhibitor, single point] |
| CCOc1ccccc1CNC(=O)C1CCN(c2nnc(C)c3c(C)n(-c4ccc(C)cc4)nc23)CC1 | – | inconclusive: 22.4 µM [inhibitor, partial curve, poor fit] and inconclusive: 28.2 µM [inhibitor, single point] |
| O=C(COC(=O)c1ccccc1C(=O)c1ccc(Cl)c([N+](=O)[O-])c1)NC1CC1 | – | inconclusive: 39.8 µM [inhibitor, single point] |
| CN[C@H]1C[C@H]2c3[nH]c4ccc(-c5ccc(OC)cc5)cc4c3CCN2C(=O)[C@H]1[C@H](C)O | – | active: 17.8 µM |
| Cc1cc2c(n1-c1ccc(C(=O)NCCc3ccc(Cl)cc3)cc1)CCC(C)C2 (centres undefined) | – | inconclusive: 39.8 µM [inhibitor, single point] |
| S=c1[nH]nc(-c2cc(-c3ccco3)[nH]n2)n1-c1ccccc1 | inactive: -9.9% | – |
| O=C(c1cc(Cl)cc(Cl)c1)N1CCC(=O)N([C@H](COCc2ccccc2)Cc2ccccc2)CC1 | – | inconclusive: 39.8 µM [inhibitor, single point] |
| CC(/C=N\NC(=O)Cn1c(C)nc2ccccc21)=C\c1ccccc1 | – | inconclusive: 17.8 µM [inhibitor, partial curve, poor fit] |
| Cc1ccnc(NS(=O)(=O)c2ccc(NC(=O)c3ccc([N+](=O)[O-])s3)cc2)n1 | – | inconclusive: 25.1 µM [inhibitor, single point] |

| SMILES | activity change, negative = inhibition | Potency |
| --- | --- | --- |
| CN1C2C=CC(=O)C1C1C(=O)N(c3ccccc3)C(=O)C12 (centres undefined) | – | inconclusive: 39.8 µM [inhibitor, single point] |
| COC(=O)C1=C(C)N(c2ccc(OC)c(OC)c2)C(=O)/C1=C\c1cccs1 | – | inconclusive: 42.3 µM [inhibitor, single point] |
| Cc1ccc(-c2ccc(CN3C(C(C)C)C(=O)N(Cc4cn(Cc5ccco5)nn4)CCS3(=O)=O)cc2)cc1 (centres undefined) | – | inconclusive: 39.8 µM [inhibitor, single point] |
| Cc1ccc(C(=O)N2CCN(c3ncnc4c(C)csc34)CC2)cc1 | – | inconclusive: 15.8 µM [inhibitor, partial curve, poor fit] |
| C=CCn1c(SCc2nc3ccccc3[nH]2)nnc1-c1ccncc1 | inactive: 0.272% | – |
| CC(C(=O)O)c1ccc2c(c1)CC(=O)c1ccccc1S2 (centres undefined) | – | inconclusive: 3.85 µM [inhibitor, full curve] |
| COC(=O)/C=C1\SC(=Nc2ccccc2)NC1=O | inactive: -4.49% | – |
| CC1(C(=O)N2CCC(CC3CC(c4cccc(Br)c4)=NO3)(C(=O)NCC3CCCCC3)CC2)CC1 (centres undefined) | – | inconclusive: 35.5 µM [inhibitor, single point] |
| COc1cc(OC)c(N(C)S(=O)(=O)c2cccc(C(=O)NC3=NCCS3)c2)cc1Cl | – | inconclusive: 39.8 µM [inhibitor, single point] |
| Cc1cccc(N2CCN(CC3CCCCC3)CC2)c1C | inconclusive: -56.2% [inhibitor] | – |
| CN(C)c1ccc(C(=C2C=CC(=[N+](C)C)C=C2)c2ccc(N(C)C)cc2)cc1 | – | active: 2.24 µM and active: 7.69 µM |
| NS(=O)(=O)c1ccc(CCNC(=O)Nc2ccc(Cl)c(Cl)c2)cc1 | – | inconclusive: 12.6 µM [inhibitor, partial curve] |
| CCc1nc2c(OCCOc3ccc(F)cc3)cccn2c1N(C=O)Cc1ccccc1 | inactive: 0% | – |
| CC1CCN(CCOc2cccc(Br)c2)CC1 | – | inconclusive: 10.6 µM [inhibitor, partial curve, poor fit] |
| COc1ccc(-c2cccc(-c3cc(=O)oc4ccc(C(C)(C)C)cc34)c2)cc1 | inactive: 13.1% | – |
| CC(C)N(C(=O)[C@H]1CC(CC(=O)NCc2cccc(C(F)(F)F)c2)C(=O)N2CCc3c([nH]c4ccccc34)[C@]12C)C(C)C (some centres undefined) | – | inconclusive: 39.8 µM [inhibitor, single point] |
| Cc1ccc2c(CN3CCN(Cc4ccccc4)CC3)cc(=O)oc2c1C | – | inconclusive: 39.8 µM [inhibitor, single point] |
| COc1ccc(-c2n(CC(=O)OC3CC(C)CCC3C(C)C)c3ccccc3[n+]2C)cc1 (centres undefined) | – | active: 7.52 µM |
| Fc1ccc(-n2c(-c3ccc4ccccc4n3)n[nH]c2=S)cc1 | inactive: -7.81% | – |
| Cc1cccc(N(C)C(=O)c2cc3cc4ccc(C)cc4nc3o2)c1 | inactive: 36% | – |
| Cc1ccc2[nH]c3c(NCc4ccccc4)ncnc3c2c1 | – | inconclusive: 14.1 µM [inhibitor, partial curve] |
| CCCCc1c(Cc2ccccc2)ncn1CCc1ccccc1OC | – | active: 14.1 µM |

| SMILES | activity change, negative = inhibition | Potency |
| --- | --- | --- |
| CCCCOc1ccc(C(=O)NNC(=O)c2cnccn2)cc1OC | – | inconclusive: 15.8 µM [inhibitor, partial curve] |
| COc1ccc(/C=N/Nc2cc(C)nc3ccc(OC)cc23)c(OC)c1 | – | inconclusive: 18.9 µM [inhibitor, partial curve, poor fit] |
| COc1ccc(N(C)S(=O)(=O)c2ccc3c(c2)NC(=O)CO3)c(OC)c1 | inactive: -7.58% | – |
| CCCCC(=O)NC(c1ccco1)c1cc(Cl)c2cccnc2c1O (centres undefined) | – | inconclusive: 20 µM [inhibitor, partial curve, poor fit] |
| O=[N+]([O-])c1cc(S(=O)(=O)NCCN2CCOCC2)ccc1Sc1nnnn1-c1ccccc1 | inactive: -31.5% | – |
| CCN(CC)S(=O)(=O)c1cc([N+](=O)[O-])ccc1NNC(=O)Nc1ccc(Cl)c(Cl)c1 | – | inconclusive: 31.6 µM [inhibitor, partial curve, poor fit] |
| O=C(Nc1ccc(C(=O)N2CCOCC2)cc1)c1cc(-c2cccnc2)nc2ccc(Br)cc12 | – | inconclusive: 37.7 µM [inhibitor, single point] |
| CCNC(=O)CCCC=CC[C@@H]1[C@H](C=CC(O)CCc2ccccc2)[C@@H](O)C[C@@H]1O (some centres undefined) | inactive: -2.6% | – |
| Cc1ccc2nc(C3CCCCC3)c(Cc3cccc(F)c3)n2c1 | – | inconclusive: 39.8 µM [inhibitor, single point] |
| CCCCn1c(NC(=O)c2ccccc2Cl)c(C#N)c2nc3ccccc3nc21 | – | inconclusive: 25.1 µM [inhibitor, partial curve] |
| NC(=O)CC(NC(=O)Cc1cccc2ccccc12)c1ccc(NCCc2cccc(F)c2)c([N+](=O)[O-])c1 (centres undefined) | – | inconclusive: 39.8 µM [inhibitor, single point] |
| Cc1nc(-c2ccc(OCC(C)C)c(C#N)c2)sc1C(=O)O | – | inconclusive: 25.1 µM [inhibitor, partial curve] |
| CCN(CC)CCC(c1cc(OC)c(OC)c(OC)c1)c1c(OC)cc(OC)c2c(-c3ccccc3)cc(=O)oc12 (centres undefined) | – | inconclusive: 28.2 µM [inhibitor, single point] |
| Cc1ccc(CNC(=O)C2CCN(S(=O)(=O)Cc3ccccc3)CC2)cc1 | inactive: 2.21% | – |
| CCOc1cc2sc(N3CCC(C(=O)Nc4ccccc4C(=O)OC)CC3)nc2cc1Br | inactive: 1.9% | – |
| CCSC1=NC(C)(C)C=C(C)N1 | – | inconclusive: 28.2 µM [inhibitor, partial curve, poor fit] |
| O=C(CCC(=O)Nc1ccc(F)cc1)N/N=C/c1cc([N+](=O)[O-])ccc1O | – | inconclusive: 22.4 µM [inhibitor, single point] |
| CS(=O)(=O)N1CCc2cc(C(=O)Nc3ccc(Cl)c(C(F)(F)F)c3)ccc21 | – | inconclusive: 31.6 µM [inhibitor, single point] |
| CCN(C[C@H]1N[C@@](CC)(C(=O)OC)[C@H]2C(=O)N(C)C(=O)[C@@H]12)C(=O)c1ccc(C(C)(C)C)cc1 | inactive: 7.81% | – |
| CCOc1c(Br)cc(CNc2ccc(N3CCN(C(C)=O)CC3)cc2)cc1OC | inactive: -23.9% | – |
